Test results published in the supplement of paper PMC4967469.

What was measured:
Assay in all cases: Viability of human cancer cell lines after 72 h of drug (GDSC screen)
[1] = compound: CC1=C(/C=C/C(C)=C/C=C/C(C)=C/C(=O)O)C(C)(C)CCC1 [Tretinoin]; settings: top dose 10 µM; top dose inferred
Description: (§1)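 Human cancer cell lines in 384-well plates, medium with 10% serum, drug for 72 h over a 256-fold dose range (nine 2-fold or five 4-fold steps up to the top dose). Adherent lines were fixed and stained with the nucleic acid dye Syto60, suspension lines read with resazurin; signal relative to control wells, capped at 0 and 100%. One two-parameter sigmoid per drug and line, fitted in a mixed model over all curves with the slope shared within a line.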

[2] = compound: CCn1c(-c2nonc2N)nc2c(C#CC(C)(C)O)ncc(OC[C@H]3CCCNC3)c21 [GSK690693]; settings: top dose 10.24 µM; top dose inferred
Description: as §1

[3] = compound: COc1cc2c(NC3CCN(C(C)C)CC3)nc(C3CCCCC3)nc2cc1OCCCN1CCCC1 [UNC0638]
Description: as §1

[4] = compound: COc1ccc(N(C(=O)Oc2c(C)cccc2C)c2ccnc(Nc3ccc(N4CCN(C)CC4)cc3)n2)c(OC)c1 [WH-4-023]; settings: top dose 5.12 µM; top dose inferred
Description: as §1

[5] = compound: Cc1cccc(-c2[nH]c(C(C)(C)C)nc2-c2ccc3c(c2)OCO3)n1 [SB-505124]; settings: top dose 10 µM; top dose inferred
Description: as §1

[6] = compound: O=C(NCCCNc1nc(Nc2cccc(NC(=O)N3CCCC3)c2)ncc1I)c1cccs1 [BX-795]; settings: top dose 5 µM; top dose inferred
Description: as §1

[7] = compound: Oc1cccc(-c2nc(N3CCOCC3)c3oc4ncccc4c3n2)c1 [PI-103]; settings: top dose 10.24 µM
Description: as §1

[8] = top dose 20 µM, screen: GDSC drug entry 1236, top dose inferred
[9] = top dose 40 µM, screen: GDSC drug entry 245

Row | Cell Line | AUC [1] | pIC50 [1] | AUC [2] | pIC50 [2] | AUC [3, 8] | pIC50 [3, 8] | AUC [3, 9] | pIC50 [3, 9] | AUC [4] | pIC50 [4] | AUC [5] | pIC50 [5] | AUC [6] | pIC50 [6] | AUC [7] | pIC50 [7]
1 | ES1 (Ewing sarcoma, adherent) | 0.986 | < 5.00 | 0.643 | 5.80 | 0.752 | 5.19 | 0.598 | 5.33 | 0.964 | < 5.29 | 0.882 | < 5.00 | 0.835 | 5.49 | 0.202 | 7.07
2 | ES4 (Ewing sarcoma, adherent) | 0.915 | < 5.00 | 0.729 | 5.49 | 0.765 | 5.08 | 0.709 | 4.97 | 0.973 | < 5.29 | 0.965 | < 5.00 | 0.889 | < 5.30 | 0.523 | 6.13
3 | ES5 (Ewing sarcoma, adherent) | 0.971 | < 5.00 | 0.305 | 6.78 | 0.592 | 5.63 | 0.491 | 5.63 | 0.974 | < 5.29 | 0.964 | < 5.00 | 0.708 | 5.87 | 0.275 | 6.88
4 | ES6 (Ewing sarcoma, adherent) | 0.948 | < 5.00 | 0.923 | < 4.99 | 0.744 | 5.12 | 0.654 | 5.13 | 0.672 | 5.96 | 0.956 | < 5.00 | 0.892 | < 5.30 | 0.79 | 5.24
5 | ES7 (Ewing sarcoma, adherent) | 0.893 | < 5.00 | 0.859 | 5.05 | 0.761 | 5.14 | 0.634 | 5.23 | 0.942 | < 5.29 | 0.949 | < 5.00 | 0.671 | 6.02 | 0.33 | 6.67
6 | ES8 (Ewing sarcoma, adherent) | 0.985 | < 5.00 | 0.612 | 5.90 | 0.785 | 5.10 | 0.629 | 5.26 | 0.929 | < 5.29 | 0.935 | < 5.00 | 0.723 | 5.90 | 0.438 | 6.36
7 | ES-2 (ovary, adherent) | 0.991 | < 5.00 | 0.991 | < 4.99 | 0.794 | 5.10 | 0.605 | 5.33 | 0.99 | < 5.29 | 0.99 | < 5.00 | 0.846 | 5.52 | 0.783 | 5.42
8 | ETK-1 (biliary tract, adherent) | 0.962 | < 5.00 | 0.954 | < 4.99 | 0.564 | 5.72 | 0.517 | 5.55 | 0.741 | 5.76 | 0.96 | < 5.00 | 0.84 | 5.39 | 0.957 | < 4.99

pIC50: −log10 of the molar value. By IC50 is meant the dose at which the fit gives 50% viability; where the fit passes the top or lowest dose, that dose stands as a limit. For AUC the same curve is integrated over the 256-fold range of doses and scaled to a fraction: 1 means no effect, lower means more sensitive. For some assays here: Where the top dose is marked as inferred, it is not printed in the source and was worked back from the curve model. For some assays here: An entry number marks a drug with two screens in the source, which often give different values.
